Measured values reported in US20220332832A1, “COMBINED CANCER THERAPY OF ANTI-GALECTIN-9 ANTIBODIES AND CHEMOTHERAPEUTICS” (New York University, priority 2019, published 2022).

Tests used:
mouse model KPC004 = test: Active dose in mouse model KPC004 and alternate models; assay type: in vivo
Experimental: The lowest anticipated pharmacologically active dose (PAD) is currently estimated to be 2 mg/kg, based on the mouse model KPC004 data, in which 50 mcg/mouse (2 mg/kg; human equivalent dose HED=0.16 mg/kg) was established as an active dose. Alternate models were active at the 200 or 400 mcg/mouse dose range (8-16 mg/kg; HED=0.65-1.3 mg/kg).

[1] = Once weekly repeat-dose intravenous toxicity study in rats; assay type: in vivo
Experimental: The objective of this study was to evaluate potential toxicity of G9.2-17, an IgG4 human monoclonal antibody directed against galectin-9 at different doses, when administered by intravenous injection to Sprague Dawley Rats once weekly for 4 consecutive weeks followed by a 3-week post dose recovery period. In addition, the toxicokinetic characteristics of G9.2-17 were determined.
One hundred eighty-six animals (Sprague Dawley rats) were assigned to treatment groups randomly by body weight. Control Article/Vehicle, Formulation Buffer for Test Article, and test article, G9.2-17, were administered via a single IV injection in a tail vein at dose levels of 0, 100, and 300 mg/kg once on Days 1, 8, 15, 22, and 29. Test article was administered at dose levels of 100 and 300 mg/kg once on Day 1 to animals assigned to the SSD subgroup.
Clinical observations were performed once daily prior to room cleaning in the morning, beginning on the second day of acclimation. A mortality check was conducted twice daily to assess general animal health and wellness. Food consumption was estimated by weighing the supplied and remaining amount of food in containers once weekly. The average gram (g)/animal/day was calculated from the weekly food consumption. Body weights were taken prior to randomization, on Day -1, then once weekly throughout the study, and on the day of each necropsy. Functional Observation Battery (FOB) observations were recorded for SSB animals approximately 24 hours post dose administrations on Days 1, 35 and 49. Urine was collected overnight using metabolic cages. Samples were obtained on Days 36 and 50.
Animals were fasted overnight prior to each series of collections that included specimens for serum chemistry. In these instances associated clinical pathology evaluations were from fasted animals. […]
Parameters assessed during the In-life examinations of the study included clinical observations, food consumption, body weights, functional observational battery. […] At each necropsy, gross observations and organ weights were recorded, and tissues were collected for microscopic examination.

orthotopic KPC models = test: Orthotopic KPC models: tumor growth and survival; assay type: in vivo
[2] = Once weekly 5-week intravenous infusion toxicity and toxicokinetic study in monkeys; assay type: in vivo, cynomolgus monkeys
[3] = Experimental: The vehicle and test article were administered once via IV infusion for 30 minutes during the study via a catheter percutaneously placed in the saphenous vein. The dose levels were 30, 100, and 200 mg/kg and administered at a dose volume of 20 mL/kg.
The animals were placed in sling restraints during dosing. The vehicle or test article were based on the most recent body weights and administered using an infusion pump and sterile disposable syringes. The dosing syringes were filled with the appropriate volume of vehicle or test article (20 mL/kg with 2 mL extra). At the completion of dosing, the animals were removed from the infusion system. The weight of each dosing syringe was recorded prior to the start and end of each infusion to determine dose accountability.
The animals were removed from the cage, and a detailed clinical examination of each animal was performed at 1 and 4.5 hours post-start of infusion (SOI) on Day 1 and once daily thereafter during the study. The animals were removed from the cage, and a detailed clinical examination of each animal was performed at 1 and 4.5 hours post-start of infusion (SOI) on Day 1 and once daily thereafter during the study. Body weights for all animals were measured and recorded at transfer, prior to randomization, on Day -1, and weekly during the study.
Clinical pathology evaluations (hematology, coagulation, and clinical chemistry) were conducted on all animals pretest and on Days 1 (prior to dosing), 3, 8, and 21. Additional samples for the determination of hematology parameters and peripheral blood lymphocyte and cytokine analysis samples were collected at 30 minutes (immediately after the end of infusion) and 4.5, 8.5, 24.5, and 72.5 hours post-SOI (relative to Day 1). Bone marrow smears were collected and preserved.
For processing, blood samples were collected in non-additive barrier free microtubes and centrifuged at controlled room temperature within 1 hour of collection. The resulting serum was divided into 2 approximately equal aliquots in pre labeled cryovials. All aliquots were stored frozen at -60° C. to -90° C. within 2 hours of collection.
Postmortem study evaluations were performed on all animals euthanized at the scheduled necropsy.
Necropsy examinations were performed under procedures approved by a veterinary pathologist. The animals were examined carefully for external abnormalities including palpable masses. The skin was reflected from a ventral midline incision and any subcutaneous masses were identified and correlated with antemortem findings. The abdominal, thoracic, and cranial cavities were examined for abnormalities. The organs were removed, examined, and, where required, placed in fixative. All designated tissues were fixed in neutral buffered formalin (NBF), except for the eyes (including the optic nerve) and testes. The eyes (including the optic nerve) and testes were placed in a modified Davidson's fixative, and then transferred to 70% ethanol for up to three days prior to final placement in NBF. Formalin was infused into the lung via the trachea. A full complement of tissues and organs was collected from all animals.

[4] = single i.v. dose 10-70 mg/kg, necropsies Day 8 and Day 22

B1: G9.2-17 IgG4: anti-galectin-9 IgG4 fully human antibody; VH SEQ ID NO: 7, VL SEQ ID NO: 8; heavy chain SEQ ID NO: 19, light chain SEQ ID NO: 15 (antibody, listed as Homo sapiens)
heavy: EVQLVESGGGLVQPGGSLRLSCAASGFTVSSSSIHWVRQAPGKGLEWVAYISSSSGYTYYADSVKGRFTISADTSKNTAYLQMNSLRAEDTAVYYCARYWSYPSWWPYRGMDYWGQGTLVTVSSASTKGPSVFPLAPCSRSTSESTAALGCLVKDYFPEPVTVSWNSGALTSGVHTFPAVLQSSGLYSLSSVVTVPSSSLGTKTYTCNVDHKPSNTKVDKRV[letters of human IgG4 Fc with S228P L445P (EU numbers) not shown]
light: DIQMTQSPSSLSASVGDRVTITCRASQSVSSAVAWYQQKPGKAPKLLIYSASSLYSGVPSRFSGSRSGTDFTLTISSLQPEDFATYYCQQSSTDPITFGQGTKVEIKRTVAAPSVFIFPPSDEQLKSGTASVVCLLNNFYPREAKVQWKVDNALQSGNSQESVTEQDSKDSTYSLSSTLTLSKADYEKHKVYACEVTHQGLSSPVTKSFNRGEC
active dose range (mouse model KPC004; alternate models, 200 or 400 mcg/mouse): 8 to 16 mg/kg
lowest anticipated pharmacologically active dose (PAD) (mouse model KPC004; estimated, based on mouse model KPC004 data): 2 mg/kg
active dose (mouse model KPC004; mouse model KPC004): 50 mcg/mouse
serum concentrations of IL-2, IL-4, IFN-γ, IL-5, IL-6, IL-10, TNF-α, MCP-1 and MIP-1b ([1]; 100 and 300 mg/kg IV on Days 1, 8, 15, 22, 29, rat): no G9.2-17-related changed
FOB parameters ([1]; 100 and 300 mg/kg IV once weekly, 5 doses, rat): no G9.2-17-related changes
absolute or relative organ weights ([1]; necropsy Days 36 and 50): no G9.2-17-related changes in absolute or relative organ weights
extension of survival of KPC animals (orthotopic KPC models): more than double
pancreatic tumor growth halted (orthotopic KPC models): 50%
functional observational battery (FOB) observations ([2]; 100 and 300 mg/kg/dose weekly x5, treatment or recovery periods): No test article-related FOB observations
effects on cytokines ([2]; any dose level or timepoint): No definitive G9.2-17-relatyed effects
serum concentration quantifiable after dose administration ([2]; serum, LLOQ <0.04 ug/mL, 100 and 300 mg/kg/dose): quantifiable in all cynomolgus monkey samples from all G9.2-17-dosed animals
effects on clinical chemistry endpoints ([3]; cynomolgus monkey, in vivo): no G9.2-17 IgG4-related effects on clinical chemistry endpoints
effects on coagulation times or fibrinogen concentrations ([3]; cynomolgus monkey, in vivo): no G9.2-17 IgG4-related effects on coagulation times
effects on cytokine endpoints ([3]; cynomolgus monkey, in vivo): no G9.2-17 IgG4-related effects on cytokine endpoints
effects on hematology endpoints ([3]; cynomolgus monkey, in vivo): no G9.2-17 IgG4-related effects on hematology endpoints
mortality ([3]; single IV infusion 30-200 mg/kg, 3-week observation): All animals survived to the scheduled necropsy on Day 22
mortality [4]: no unscheduled deaths

Read-outs that look alike come from different tables or passages of the source.
